Assay results as given in publication PMC4336329 (PLoS ONE, 2015).
In all, about 310,000 compounds went through this assay and about 14,000 (4.5%) showed an effect of 50% or more. The effect is printed as a negative number. Some of the results follow.

target: human ether-à-go-go-related gene (hERG) potassium channel (human, UniProt Q12809); test: primary screen, population patch clamp on CHO cells stably expressing hERG
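Note: peak tail current of the secondary pulse compared with the same well before compound.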

Sequence of human ether-à-go-go-related gene (hERG) potassium channel (Q12809 whole entry, looked up): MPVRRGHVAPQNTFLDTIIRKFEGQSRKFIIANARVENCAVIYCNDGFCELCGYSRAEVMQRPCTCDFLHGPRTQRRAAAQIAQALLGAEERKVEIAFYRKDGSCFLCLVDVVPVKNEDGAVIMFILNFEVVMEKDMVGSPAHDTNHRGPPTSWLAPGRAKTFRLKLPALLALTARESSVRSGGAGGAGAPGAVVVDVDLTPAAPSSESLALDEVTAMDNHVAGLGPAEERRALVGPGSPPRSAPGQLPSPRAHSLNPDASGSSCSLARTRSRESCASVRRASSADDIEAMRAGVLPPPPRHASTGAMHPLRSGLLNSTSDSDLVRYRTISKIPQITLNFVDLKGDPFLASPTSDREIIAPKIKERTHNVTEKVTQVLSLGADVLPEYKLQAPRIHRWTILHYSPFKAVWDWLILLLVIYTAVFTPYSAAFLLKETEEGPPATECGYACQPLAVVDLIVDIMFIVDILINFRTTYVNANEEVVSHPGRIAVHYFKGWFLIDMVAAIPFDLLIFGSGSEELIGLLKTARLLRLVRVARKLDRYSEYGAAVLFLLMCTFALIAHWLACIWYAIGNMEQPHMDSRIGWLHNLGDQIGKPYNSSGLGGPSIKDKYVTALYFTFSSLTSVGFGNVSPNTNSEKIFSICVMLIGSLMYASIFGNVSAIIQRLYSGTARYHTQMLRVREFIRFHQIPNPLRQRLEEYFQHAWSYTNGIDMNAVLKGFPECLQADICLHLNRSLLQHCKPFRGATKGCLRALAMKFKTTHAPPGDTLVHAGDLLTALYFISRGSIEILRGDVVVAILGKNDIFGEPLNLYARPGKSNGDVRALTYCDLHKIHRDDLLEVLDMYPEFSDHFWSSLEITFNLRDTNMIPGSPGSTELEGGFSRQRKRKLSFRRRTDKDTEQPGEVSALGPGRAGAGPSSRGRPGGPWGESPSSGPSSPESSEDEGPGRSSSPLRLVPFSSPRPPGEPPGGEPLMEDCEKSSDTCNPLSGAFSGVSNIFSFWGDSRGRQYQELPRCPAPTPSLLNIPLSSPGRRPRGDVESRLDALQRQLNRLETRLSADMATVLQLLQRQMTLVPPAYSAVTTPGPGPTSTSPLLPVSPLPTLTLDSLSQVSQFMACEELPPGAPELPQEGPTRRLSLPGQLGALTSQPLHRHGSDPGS

First: CCCN(CC(=O)Nc1ccccc1OC)C(=O)CCC(=O)c1ccc(OCC)cc1
Second: CCCN(CC(=O)Nc1ccccc1C)C(=O)C1CCN(C(=O)Nc2ccccc2)CC1
The “hERG current change (%, negative = inhibition) at 10uM” value of the first is lower: -48.9% for the first, -34.9% for the second.

First: CCOC(=O)CSc1nn(-c2ccccc2)c(=S)s1
Second: CCOC(=O)CC1COc2ccccc2N1C(=O)c1ccc(C)cc1 (stereo not drawn)
The “hERG current change (%, negative = inhibition) at 10uM” value of the first is higher: -5.85% for the first, -8.45% for the second.

First: O=C(NC(=S)NCc1ccccc1)c1cccc(Cl)c1
Second: CN(C)C(=S)NC(=NCc1ccc([N+](=O)[O-])cc1)c1ccccc1
The “hERG current change (%, negative = inhibition) at 10uM” value of the first is higher: 10.9% for the first, -90.7% for the second.

First: COc1ccc([C@H]2C=C(C(=O)O)O[C@@H](OCCCCO)C2)cc1
Second: Cc1ccc(C(=O)CCC(=O)N2CCN(c3ccccc3O)CC2)cc1
The “hERG current change (%, negative = inhibition) at 10uM” value of the first is lower: 1.99% for the first, 5.17% for the second.

Going from `O=C(Nc1cc(Oc2ccc(Cl)cc2)cc([N+](=O)[O-])c1)c1ccco1` to `CC(C)Oc1ccc(C(=O)Nc2ccc(NC(=O)c3ccco3)c(Cl)c2)cc1`, the “hERG current change (%, negative = inhibition) at 10uM” value falls from 15% to 6.31%.

Compared with `O=C(NCC1CCCO1)c1ccc(NC(=O)c2ccc([N+](=O)[O-])cc2)cc1` (stereo not drawn), `COC(=O)c1ccc(Nc2c([N+](=O)[O-])c(=O)oc3ccccc23)cc1` is higher in “hERG current change (%, negative = inhibition) at 10uM” value: -2.58% for the first, 16.9% for the second.

First: CSC1=NC2(C)CCCCC2C12C=CC(=O)C=C2 (stereo not drawn)
Second: CCC1CCCCN1C(=O)Nc1cc(Cl)ccc1OC (stereo not drawn)
The “hERG current change (%, negative = inhibition) at 10uM” value of the first is lower: -9.44% for the first, 9.23% for the second.

First: CN(Cc1c(F)cccc1Cl)C(=O)c1ccc(COc2ccccc2)cc1
Second: CCc1ccc(CNCc2ccc(OCC(O)CN(C)Cc3ccccc3)cc2)nc1 (stereo not drawn)
The “hERG current change (%, negative = inhibition) at 10uM” value of the first is higher: 9.06% for the first, -17.4% for the second.

Going from `O=C1NC(=O)c2cc(NC(=O)C3COc4ccccc4O3)ccc21` (stereo not drawn) to `O=c1[nH]c2ccccc2cc1CN(CC1CCCO1)S(=O)(=O)c1ccccc1` (stereo not drawn), the “hERG current change (%, negative = inhibition) at 10uM” value falls from 2.93% to -10.3%.

First: COC(=O)C1Cc2ccccc2CN1S(=O)(=O)c1ccc(F)cc1 (stereo not drawn)
Second: Cn1c(=NC(=O)CS(=O)(=O)c2ccc(F)cc2)sc2ccccc21
The “hERG current change (%, negative = inhibition) at 10uM” value of the first is lower: -9.62% for the first, -7.8% for the second.

Compared with `COc1ccc(/C(N)=N/OC(=O)c2c(-c3ccccc3Cl)noc2C)cc1OC`, `COc1cccc2cc(C(=O)OC(C)C(=O)c3ccc(C)cc3)c(=O)oc12` (stereo not drawn) is higher in “hERG current change (%, negative = inhibition) at 10uM” value: 4.73% for the first, 10.7% for the second.

Going from `CCn1c(CC(=O)Nc2ccccc2F)nnc1SCC(=O)NC1CCCCC1` to `CCn1c(SCC(=O)NC2CCCC2)nnc1C(C)NC(=O)c1ccccc1Br` (stereo not drawn), the “hERG current change (%, negative = inhibition) at 10uM” value rises from 16.2% to 21.1%.

Going from `CCC1COC(c2cccn2Cc2ccccc2Cl)=N1` (stereo not drawn) to `COc1ccc(Cn2c(=O)oc3ccccc32)cc1F`, the “hERG current change (%, negative = inhibition) at 10uM” value rises from 9.79% to 13.4%.

Compared with `O=c1cc(CSc2n[nH]c(=O)n2C2CC2)c2ccc(O)cc2o1`, `O=c1oc2c(-c3cccc(F)c3)cc(O)cc2s1` is higher in “hERG current change (%, negative = inhibition) at 10uM” value: 5.98% for the first, 8.45% for the second.

Compared with `Cc1c(Br)c(C(F)(F)F)nn1CC(=O)N1CCCC1`, `COC(=O)c1ccc(N=NN2CCCCC2)cc1` is higher in “hERG current change (%, negative = inhibition) at 10uM” value: -2.9% for the first, 11.2% for the second.

Going from `CCOC(=O)c1cccc(NC(=O)C2CCC(CNc3c(N4CCOCC4)c(=O)c3=O)CC2)c1` (stereo not drawn) to `CC1CCN(S(=O)(=O)N2CCC(C(=O)NCCc3ccccc3)CC2)CC1`, the “hERG current change (%, negative = inhibition) at 10uM” value falls from 10.2% to 2.8%.

First: COc1cnn(-c2ccc(C)cc2)c(=O)c1Cl
Second: COc1cc(C)c(S(=O)(=O)NOCc2ccccc2)c(C)c1C
The “hERG current change (%, negative = inhibition) at 10uM” value of the first is higher: 14.2% for the first, -28.6% for the second.

Going from `Clc1ccc(Oc2nc3c(Cl)cccc3s2)cc1Cl` to `CCOc1cccc(C(=O)NC2=NCCS2)c1`, the “hERG current change (%, negative = inhibition) at 10uM” value falls from 6.55% to -12.9%.

First: COc1cc(OC)c2c(-c3ccccc3)cc(=O)oc2c1C(CC(=O)N1CCN(c2ccccc2)CC1)c1ccc(N(C)C)cc1 (stereo not drawn)
Second: COc1ccccc1C(=O)N1CCN(Cc2c[nH]c3ccccc23)CC1.O=C(O)C(=O)O
The “hERG current change (%, negative = inhibition) at 10uM” value of the first is higher: 20.7% for the first, -19.7% for the second.

First: Cc1cccc(NC(=O)CN(CCc2ccccc2)S(C)(=O)=O)c1
Second: O=C(Nc1ccc(S(=O)(=O)Nc2ncccn2)cc1)c1ccc(Br)o1
The “hERG current change (%, negative = inhibition) at 10uM” value of the first is lower: 0.679% for the first, 12.3% for the second.

First: Cn1cccc1Cc1nnc(SCC(=O)NC2CCCC2)n1-c1ccc(F)cc1
Second: CC(NC(=O)CNC(=O)C1CCCCC1)c1ccc(S(N)(=O)=O)cc1 (stereo not drawn)
The “hERG current change (%, negative = inhibition) at 10uM” value of the first is lower: -19% for the first, 11.5% for the second.

Going from `CCOC(=O)Cn1nc(C)c(NC(=O)COc2ccc([N+](=O)[O-])c(C)c2)c1C` to `O=C(NCCO)/C(=C/c1ccc2c(c1)OCO2)NC(=O)c1ccc(Br)cc1`, the “hERG current change (%, negative = inhibition) at 10uM” value falls from -6.24% to -69.5%.

`CC1(C)CC(=O)c2sc(NC(=O)C(C)(C)C)nc2C1` was tested, and the “hERG current change (%, negative = inhibition) at 10uM” value was -3.28%.
